Test system: HSV (Herpes simplex virus)
Assay: organism not typed
Excerpt: The antiviral activities of these compounds have also been determinated "in vitro" against HSV (Herpes simplex virus) and VSV (Vesicular stomatitis virus). The methodology used to carry out this determination is described by Raymond J. Bergeron et.al. Biochem. Bioph. Res. Comm. 1984, 121(3), 848-854 and by Alan C. Shroeder et al. J. Med. Chem. 1981, 24 1078-1083.

| SMILES | IC50 |
| --- | --- |
| CC(C(=O)O)C1CCC(C)(CCC2(C)C(C)CCC3C(C)(C)CCCC32O)OO1 (centres unmarked) [Mycaperoxide A, mycaperoxide A] | > 1 µg/mL |
| CC(C(=O)O)C1CCC(C)(CCC2(O)C(C)CCC3C(C)(C)CCCC32C)OO1 (centres unmarked) [Mycaperoxide B, mycaperoxide B] | > 1 µg/mL |
